The supplement of paper PMC3334620
Over roughly 33,000 sequences, “E-score (-0.5 to 0.5)” has its median near -0.053; the highest 2% begin near 0.37. Some of the results follow.

target: Hap1 (UniProt P0CE41); assay: PBM E-score (8-mer binding enrichment) (E-score (-0.5 to 0.5)); higher = stronger / more preferred TF binding; most listed sequences are background and not binding sites; settings: protein concentration: 200 nM; construct: GST-DNA-binding domain
In short: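 Yeast transcription factors carrying a GST tag, as full-length proteins or DNA-binding domains, were produced by PURExpress in vitro transcription/translation. About 100-200 nM protein was applied to universal all-10-mer Agilent arrays, double-stranded by primer extension on fresh or once-stripped slides. Bound protein was detected with fluorescent anti-GST, and scans were normalised with masliner. The Universal PBM Analysis Suite gave each ungapped eight-base word, pooled with its reverse complement, an E-score, a modified Wilcoxon-Mann-Whitney statistic.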

Chain of UniProt P0CE41 (P0CE41 whole entry, the tested form may be a part): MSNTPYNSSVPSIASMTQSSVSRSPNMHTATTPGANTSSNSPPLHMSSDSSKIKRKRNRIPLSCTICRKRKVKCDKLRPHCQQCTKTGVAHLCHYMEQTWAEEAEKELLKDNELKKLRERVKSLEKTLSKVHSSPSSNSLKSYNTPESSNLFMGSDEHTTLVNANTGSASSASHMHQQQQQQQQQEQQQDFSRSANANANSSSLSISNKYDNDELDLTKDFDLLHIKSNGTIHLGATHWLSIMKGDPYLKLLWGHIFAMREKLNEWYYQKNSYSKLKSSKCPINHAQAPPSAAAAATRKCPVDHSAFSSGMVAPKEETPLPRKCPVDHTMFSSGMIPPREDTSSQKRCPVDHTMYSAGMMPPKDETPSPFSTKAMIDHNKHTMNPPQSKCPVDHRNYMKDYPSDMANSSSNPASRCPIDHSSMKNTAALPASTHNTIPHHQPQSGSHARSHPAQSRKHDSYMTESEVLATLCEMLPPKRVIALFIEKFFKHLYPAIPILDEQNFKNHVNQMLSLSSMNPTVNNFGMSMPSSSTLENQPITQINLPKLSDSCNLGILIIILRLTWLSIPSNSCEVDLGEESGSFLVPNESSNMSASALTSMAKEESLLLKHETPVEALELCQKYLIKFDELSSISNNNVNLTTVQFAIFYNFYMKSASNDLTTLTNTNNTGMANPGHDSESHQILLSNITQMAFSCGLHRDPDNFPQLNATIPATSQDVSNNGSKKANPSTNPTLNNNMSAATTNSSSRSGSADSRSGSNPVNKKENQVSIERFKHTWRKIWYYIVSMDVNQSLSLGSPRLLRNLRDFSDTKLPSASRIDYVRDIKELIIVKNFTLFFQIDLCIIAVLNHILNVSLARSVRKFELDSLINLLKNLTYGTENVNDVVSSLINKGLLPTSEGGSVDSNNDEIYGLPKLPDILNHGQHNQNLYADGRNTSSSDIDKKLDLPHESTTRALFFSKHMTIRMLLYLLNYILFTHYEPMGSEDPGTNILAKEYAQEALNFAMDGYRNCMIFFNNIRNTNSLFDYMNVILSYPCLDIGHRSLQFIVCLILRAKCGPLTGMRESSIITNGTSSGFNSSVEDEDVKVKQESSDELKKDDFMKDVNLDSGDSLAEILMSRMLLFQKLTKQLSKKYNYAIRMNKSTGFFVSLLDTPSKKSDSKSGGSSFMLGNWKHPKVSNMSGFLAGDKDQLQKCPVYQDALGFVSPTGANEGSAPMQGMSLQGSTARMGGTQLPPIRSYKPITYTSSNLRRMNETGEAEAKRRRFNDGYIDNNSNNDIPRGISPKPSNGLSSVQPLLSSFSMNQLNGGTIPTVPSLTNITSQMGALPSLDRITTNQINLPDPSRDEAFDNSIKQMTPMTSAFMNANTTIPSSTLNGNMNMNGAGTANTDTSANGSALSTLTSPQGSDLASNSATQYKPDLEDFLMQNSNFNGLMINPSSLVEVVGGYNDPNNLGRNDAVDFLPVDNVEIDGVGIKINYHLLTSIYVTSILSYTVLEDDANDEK

Sequence	PBM E-score
AGCAGTTG	-0.0263
AATGCTTG	-0.14
TTGCTAAA	-0.0806
GTCCGCCA	0.166
GCAGATGC	-0.119
TAACAAAA	-0.123
AAGCCAAT	-0.0333
CACAGGCG	-0.132
TCGTTGCA	-0.218
GGCCACAC	0.112
ACATTGTA	-0.159
CTCGATTA	0.0285
CGGGCGTC	0.296
CGGAGAGC	0.216
AGCTAAAT	-0.0923
GAAAACTA	0.117
ATATGGCC	0.157
AGAGTTGC	0.0723
GGAAACAC	0.186
ACGTGGCT	-0.17
GCAAGGCA	-0.163
AACACACG	-0.176
TGCACCAA	-0.395
AGGCTGCC	-0.154
TATGTTCA	-0.114

Sequence	PBM E-score
CATACACC	0.0763
AACGTTGA	0.0612
CAAGGGTA	-0.149
CGATTGTA	0.145
ATTGCCTC	-0.0685
CCTATTAC	-0.148
CGCGATCA	0.0619
CTCTCCAC	-0.241
ACGTTTCT	-0.242
GCGAATGA	0.117
AATCCAAC	-0.164
CACCTCTG	-0.231
ACGACCCT	0.0604
AGGTGGTA	0.0654
ACTTTCTG	-0.0792
CGACGAAC	0.176
CGCTTATA	0.234
CGTCTTTC	-0.117
AAGCAAAG	-0.0931
AGATGCCC	-0.12
CTGTGTCA	-0.0957
GCAGTAGA	-0.3
CACTCCAC	-0.268
AGACTCCT	-0.212
ATCTAGGC	-0.266

Sequence	PBM E-score
TCACGAAA	-0.114
ACGCTTCG	0.122
CGCCGGCC	0.396
ACCGCGGC	0.259
ACTACCGC	0.0612
CAACCTGC	0.0857
AAGGCTCG	-0.155
CCCTTCGG	0.33
AGACTCCC	-0.237
TGCCTCAA	-0.0297
GCACTGGA	-0.275
GATCGCTA	-0.0446
AAAGTAGA	-0.235
CCTGCTCG	-0.0416
CTCGACGA	-0.328
CTCAGGGA	-0.239
GCCAATCC	0.189
ATGCGGCA	0.0207
TATGATAA	-0.0526
AAACGCAT	-0.304
TCGGGAAA	0.296
GTCTAATA	-0.0822
ATAATCAA	0.131
CCATCCGA	0.226
ATTTGACA	-0.128

Sequence	PBM E-score
GCAATTTA	-0.00427
AGAGTGCC	-0.173
CGGCGGAG	0.387
CTAAGGGC	-0.143
TATTGGAA	-0.295
ACTTTACA	-0.0622
AGGCTCGG	0.23
ATTGCCGG	0.368
CAGCGCAC	-0.112
CGCTCTAC	-0.24
CGGATAAA	0.381
CCCGACTA	0.259
GCAGGGGC	-0.239
AGAAACCG	0.245
GTCTGATA	-0.252
ACCTCAAT	-0.25
TAATTGGA	-0.0733
AAGTGATA	-0.166
AAGTTTCG	0.108
AGTACTTG	-0.193
CGAATATA	0.175
CGATCAGA	-0.202
CACGGAGA	0.365
AACATGTT	-0.112
CGGGCACA	0.119

Sequence	PBM E-score
GCCGATAA	0.449
CTCCAGGA	-0.152
CGACCGCC	0.0587
TAAAATCA	-0.0975
ACGGCGGG	0.239
CGGGGCGC	0.26
GGAGCAAA	0.0477
CAAGCCTC	0.00557
TTCAGAAA	-0.227
AACAGGCC	-0.0916
ATGTAATG	0.0908
CCAAACCC	0.0606
GTTTCCAA	-0.238
AGTCCCTA	-0.145
GGGTCAAA	0.0274
ATGCGCAG	-0.0423
ATAGGATA	-0.00923
ACGTATAG	-0.0719
AACTTACC	0.0748
GACTAAAA	0.126
CTAACAAC	-0.182
ACGGATCA	0.191
CCGGTATA	0.425
AAATTCTA	-0.166
GCTTTGCC	-0.0963

Sequence	PBM E-score
AGCGGCGA	0.247
AGTCAATA	-0.119
GCTTCCAA	-0.19
AAGGTTGT	-0.227
CCCGCACA	0.202
TTAACTAA	0.132
AACCTGGG	-0.199
GCAAAGTA	-0.0487
TCCCCACA	-0.303
AAAGCTTG	-0.272
GGGTTCTA	-0.091
AAAAGCCC	0.138
AGTGAGGA	-0.338
CCTTACCC	-0.0817
CTTCTATA	-0.226
CATACGAG	-0.141
AATACCCT	-0.0844
GCGCAGGA	-0.179
TCAGCTCA	0.044
CACTGACA	-0.233
CTGTTCAC	-0.257
CATCAATG	-0.178
CTCCGGTA	0.439
AAAGTCTG	-0.291
ACACCTGA	-0.135

Sequence	PBM E-score
ACAGGCAG	-0.205
GTTAGCGA	0.0395
AAGGAATC	-0.126
ATTACCCG	0.214
ATGCTTCC	0.00659
ACACGGCA	-0.064
CTCCGCTC	0.172
CCGGTGGC	0.286
AAGACGGT	-0.213
GCCTTCTA	-0.231
AGCCTCAA	-0.0717
ACCTTATC	0.139
AACTTCGT	-0.111
CCCACCCG	0.251
GTTTTTGA	-0.0624
ATGTACTC	-0.162
ACGGCATC	0.0908
ACCCAATG	-0.191
GTTGTGCA	-0.196
TCTTCACA	-0.146
CGCACAAC	-0.225
ATCTCCGA	0.486
ATGAAGCC	0.136
CACCTAGC	-0.0838
GTGATATA	-0.0427

Sequence	PBM E-score
ACTGAGTC	-0.0716
GGCCGCGA	0.0621
AGGAATTG	-0.193
ATCCCGGG	0.376
CCGAGTAG	0.26
CAGCTGAA	-0.292
GATGCTGA	-0.201
GACGCTAC	0.00346
ACGGAAAG	0.232
CTTACCAA	-0.171
CTATACCC	0.204
TGTCACAA	-0.177
ACTAACCT	0.00719
CGGACGAG	0.387
AATGAATA	-0.157
GTACCGCA	0.236
CCAACACG	-0.161
GCCTGTCC	-0.0412
GGCCCCCA	-0.135
CTACTAGC	0.0698
ACGACCCC	-0.0829
ACAACAGT	-0.083
AACGGCAT	0.278
CAGATGAC	-0.0934
ACTCAAAC	-0.147

Sequence	PBM E-score
CTCAGCGC	-0.0355
GACTTACC	0.262
GGGGGGTA	0.047
AACAATTG	-0.342
CGTGAGAC	0.00208
GATCAACA	-0.284
AAACCTGG	-0.0932
CACGAGCA	-0.24
TCCGCAGA	0.205
ATCCGCGC	0.245
AATCTCGG	0.358
CATACATG	-0.244
AGAGGAAG	-0.236
GGGCGCGA	0.235
CTCCAAGC	-0.0834
CAGCCTCC	-0.111
ATGTTACG	-0.166
ACTCGCAA	-0.231
AAATCACG	-0.0297
CCCTCAGC	-0.0707
CCCGCGGC	0.284
GGCCTCAA	0.082
AGCCCCGG	0.373
GGGTTTTA	0.288
ACGCCCGG	0.377

Sequence	PBM E-score
AAGTCTTG	-0.0755
CGGGGCTA	0.357
CTTTACTC	-0.0299
AGTACCCA	-0.184
CTGCTCCC	-0.0611
TCCTTAAA	-0.369
AAAAGCTA	-0.225
ATAAAGTA	-0.119
CACCCTCA	-0.191
ATGCAAGA	-0.166
GAAGTCTA	-0.151
ACCAGGCG	-0.0945
AGGATAAT	-0.2
AACATCTT	-0.0575
AGCATCGA	-0.081
TGTGCGAA	-0.172
CCATTAAG	0.021
AAAACATT	-0.309
GCAATGAC	-0.195
CGGTAGTC	0.197
TCCCACAA	-0.0573
ATTAAAAT	-0.0256
CTTATTCA	-0.26
TAATAAGA	-0.103
CGGGACTC	0.133

Sequence	PBM E-score
ATCCCTGG	-0.246
AGAAATAT	0.0904
AATAACTA	-0.237
CGTCGAGA	-0.292
GACGTGGC	-0.172
CGGAGTAA	0.37
AAACACGC	0.133
CAAGTAGG	-0.229
GACCTCTA	-0.11
GACGATCA	-0.11
ACGTCGCG	0.0194
GTCATAAA	-0.0397
GCTTTGGA	0.0583
AACATCGC	0.0315
CAACTCCA	-0.0501
AATTGGAT	-0.153
ATAAAGTG	-0.0476
CCTAGGAA	-0.179
GATGTCTA	-0.0542
CCTTTACG	-0.0181
AATGGAAT	0.0363
CTGAAGCC	-0.0718
CTGACTCA	-0.326
CAGTACGC	-0.0401
CAATGTGG	-0.121

Sequence	PBM E-score
ACTAGATA	-0.0762
ATAGTTTC	-0.0377
GGCGAGAC	-0.0884
ATTTTGTC	0.0856
CAGTCGAA	-0.204
AAGTTATT	0.0401
ACGCTAAA	-0.127
ACCTTCAT	0.0855
GGCCATCA	-0.0951
GATCTGAA	-0.206
CAGTGCCC	0.00772
AATACTCC	0.0501
CGTCGGGC	0.289
GAACTAAC	0.212
CTTATCCC	0.158
CCTTTCCA	0.0404
GCCTCTAA	-0.184
CGATAACC	0.336
GGTCAGAC	-0.117
ATCCATCA	-0.143
GCACGGGA	0.115
GACCTTTA	-0.0412
CTGCCCGC	0.129
CGGTTATA	0.371
GAAGCGTA	0.0237

Sequence	PBM E-score
ACTGAGGC	0.00789
AATCTATC	0.0503
AACTGGAT	0.074
AAGAGGAT	-0.151
ACAAGATC	-0.204
CTATGCAG	-0.193
AAAATTGT	-0.0492
AGGAACAC	0.0612
ATGCGACG	0.0561
AGTCATTC	-0.166
CTTACGAA	-0.147
GAGGGCAA	0.0423
TACTGGCA	-0.169
CACCTAGA	-0.3
TACTCGGA	0.312
AACCTACA	0.00394
ACTCTTCC	-0.13
AACACTGG	-0.0634
CGATGGAA	0.0469
ACAGCCAG	-0.222
ATTCATCA	-0.0185
ATAAGAGC	0.103
GAAGACCA	0.029
GAGTAGAA	-0.156
CGGAAGGC	0.137

Sequence	PBM E-score
ACGCGGCC	0.0636
AGGTAGTA	-0.0824
CAGCCCGA	0.188
ACGCAGCG	-0.198
GAGCAGCC	-0.0769
GTATGTCA	-0.25
CCTGCTAA	-0.181
GCGCACCA	0.097
AGCCGTAA	0.152
TCTAAACA	-0.229
AGCGGTGA	0.14
ACTAAGAG	0.0875
AGTAATAA	-0.309
CGCATGCA	0.137
AGGCCGTA	0.0497
AGAAAGAC	-0.0936
GAAATGCC	0.16
GATTTCGA	0.0636
CAGAACAG	-0.164
